# Sequences with one replicate were seen in a single cluster, so their values are uncertain.
# System: ATP
# Assay: switch fluorescence ratio, 500 uM ATP over buffer (Cy3 cluster intensity, sum of 5 cycles each) (fold (ratio)); higher = stronger signal-on switching upon ATP binding; sequences stand for … in TCGTCGGCAGCGTCAGATGTGTATAAGAGACAGTTTTTTTTTTTTTTTTTTTTTTTTT…TC
# Conditions: aptamer strand: ATP DNA aptamer (quencher-CACCTGGGGGAGTATTGCGGAGGAAGG + anchor), 100 nM annealed; ATP concentration: 500 uM; one replicate
# How it was run: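 Imaging in selection buffer was followed by imaging after 15 min with 500 uM ATP at 22 °C, for Cy3-labelled switching-strand clusters annealed to 100 nM quencher-labelled ATP aptamer on a modified Illumina MiSeq flow-cell. Five of these buffer/ATP cycles ran, separated by NaOH stripping and re-annealing. The fluorescence ratio per cluster is summed target-cycle over summed buffer-cycle Cy3 intensity, averaged per switch-domain sequence; clusters outside 100-1000 RFU were removed.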
# 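Further: ATP exposure 15 min at 22 °C before imaging.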
row,Sequence,switch fluorescence ratio
1,GCCCGATCAT,1
2,GCCCGCGGCG,0.983
3,GCCCGTGACG,1.02
4,GCCCGTTATT,0.944
5,GCCCGTTTGC,1.03
6,GCCCTGATGT,1.09
7,GCCCTTTGAA,0.947
8,GCCGAATAGG,1.02
9,GCCGACCTGG,1.03
10,GCCGACTGAA,0.977
11,GCCGATGAAT,0.985
12,GCCGATGTCT,1
13,GCCGATTGGC,1.01
14,GCCGCATTAG,4.56
15,GCCGGAATTC,1.1
16,GCCGGAGACC,0.981
17,GCCGGCCCAG,1.01
18,GCCGGGAAAA,1.04
19,GCCGGGAAGA,1.01
20,GCCGGGACCC,0.989
21,GCCGGGGGCA,1.01
22,GCCGGGGTCC,0.993
23,GCCGGGTCTG,1.01
24,GCCGGGTGTG,1.01
25,GCCGGTAAAC,0.998

row,Sequence,switch fluorescence ratio
1,GCCGGTACGA,1.01
2,GCCGGTATTG,1
3,GCCGTAATAC,2.22
4,GCCGTCATGA,1.01
5,GCCGTGAGGA,0.992
6,GCCGTTAAAG,0.974
7,GCCGTTGT,0.971
8,GCCTAAGGAC,0.958
9,GCCTACATGT,0.977
10,GCCTACCCGT,1.11
11,GCCTATGGTG,1.2
12,GCCTCAGAAA,1
13,GCCTGAATAC,2.78
14,GCCTGCAGGC,0.992
15,GCCTGCTGTG,1.02
16,GCCTGGTGGC,0.995
17,GCCTGTAGAG,0.994
18,GCCTGTCAGC,0.982
19,GCCTGTTTTC,1.01
20,GCCTTAGTGC,1.09
21,GCCTTGGTTA,1.01
22,GCGAAAAATC,1.04
23,GCGAAACCGT,1.11
24,GCGAACCCAG,3.87
25,GCGAAGATCC,1.04

row,Sequence,switch fluorescence ratio
1,GCGAATGCAT,1.05
2,GCGACACCC,1.22
3,GCGACACCTT,1.19
4,GCGACACGGA,1.04
5,GCGACAGGCG,1.05
6,GCGACTATAT,1.16
7,GCGACTTGCA,1.04
8,GCGAGAAGAA,0.956
9,GCGAGACGAA,1.04
10,GCGAGAGAGA,1.02
11,GCGAGAGCGT,1.04
12,GCGAGAGGGC,1.09
13,GCGAGAGTCT,1.16
14,GCGAGCTAGT,1.02
15,GCGAGTGGAT,1.06
16,GCGATATCC,1.42
17,GCGATATGTA,1.03
18,GCGATATTTT,1.22
19,GCGATCAGCC,1.03
20,GCGATCCCGT,1.04
21,GCGATGTTGG,0.994
22,GCGATTCGG,1.04
23,GCGCAAACTC,2.53
24,GCGCAAATAT,1.02
25,GCGCAAATTG,0.989

row,Sequence,switch fluorescence ratio
1,GCGCAAGAG,3.33
2,GCGCAATCGT,1.75
3,GCGCACGTGG,1.06
4,GCGCAGCATG,1.02
5,GCGCAGCGAT,1.14
6,GCGCAGGGCT,1.17
7,GCGCATCGGG,1.04
8,GCGCATGCG,0.978
9,GCGCCAGAAA,0.993
10,GCGCCCGCAG,1.15
11,GCGCCTTACC,1.47
12,GCGCGACACC,1.31
13,GCGCGCAGCT,0.973
14,GCGCGCTCAT,0.976
15,GCGCGCTTTA,1.22
16,GCGCGGAATA,1.04
17,GCGCGGCCGA,1.01
18,GCGCGTCTCG,1
19,GCGCGTTAGA,1.01
20,GCGCTAACCT,1.53
21,GCGCTCACGA,1.1
22,GCGCTGAACG,1.04
23,GCGCTGAGGA,1
24,GCGCTTACAT,1.06
25,GCGGAACTAG,1.03

row,Sequence,switch fluorescence ratio
1,GCGGAATCGG,0.987
2,GCGGACGAGC,1.07
3,GCGGACGGT,0.999
4,GCGGCACATG,0.955
5,GCGGCAGAAA,0.999
6,GCGGCAGCTG,0.943
7,GCGGCTCAGC,1.02
8,GCGGGATATC,0.982
9,GCGGGGAATA,0.982
10,GCGGGGATTG,0.987
11,GCGGGTTTAA,1.02
12,GCGGTCGAGT,0.956
13,GCGGTCGCAG,1.01
14,GCGGTCTGAC,1.1
15,GCGGTGGCCA,1
16,GCGGTTAGAC,1.09
17,GCGGTTGTTG,0.964
18,GCGGTTTACC,0.98
19,GCGTAAACTG,1.05
20,GCGTAAATA,1.01
21,GCGTAAGGGG,0.969
22,GCGTACAGCG,1
23,GCGTACGGAC,1.2
24,GCGTAGATAT,1.08
25,GCGTAGGAAT,1.2

row,Sequence,switch fluorescence ratio
1,GCGTATCCAC,1.02
2,GCGTATTCTG,1.09
3,GCGTCGACAG,0.977
4,GCGTCGTGGA,1.05
5,GCGTCTTAAA,0.958
6,GCGTGAGACT,1.02
7,GCGTGAGGGA,1.04
8,GCGTGATAT,1.17
9,GCGTGCAAAG,1
10,GCGTGCATTT,0.938
11,GCGTGCGCAG,1.04
12,GCGTGGGGTA,1.02
13,GCGTGGTGGA,1.03
14,GCGTGTTGCT,1
15,GCGTTAGTCA,1.01
16,GCGTTCGAGC,1.03
17,GCGTTGACCT,1.12
18,GCGTTGCAAC,1.03
19,GCGTTGGGAA,0.953
20,GCGTTTTACG,0.996
21,GCGTTTTCTA,0.981
22,GCTAAACGGC,1.09
23,GCTAAAGAGA,1.03
24,GCTAACGTTC,1.02
25,GCTAATGGTA,1.01

row,Sequence,switch fluorescence ratio
1,GCTAATGTAC,1.26
2,GCTAATGTGG,1.01
3,GCTACCCACG,1.48
4,GCTACCTGAA,1.09
5,GCTACGATAT,1.33
6,GCTAGCAAAC,0.988
7,GCTAGCTTTA,1
8,GCTAGGAGAG,1.01
9,GCTAGGCCGT,1
10,GCTAGGGACC,1.05
11,GCTAGGTATG,1.01
12,GCTAGGTGGG,0.94
13,GCTAGTCGCG,0.959
14,GCTAGTTATT,1.01
15,GCTAGTTTTG,1.01
16,GCTATACATA,1.08
17,GCTATATCGT,0.987
18,GCTATATTGC,1.1
19,GCTATCAGAG,0.954
20,GCTATCTATT,0.964
21,GCTATGGGCC,1.07
22,GCTATTATGC,0.971
23,GCTATTCAAA,0.992
24,GCTATTCGGC,0.943
25,GCTATTGGG,1.03

row,Sequence,switch fluorescence ratio
1,GCTATTTCGA,0.973
2,GCTATTTCTT,1.03
3,GCTCAAATG,1.01
4,GCTCAACGAG,1.01
5,GCTCACAATG,1.12
6,GCTCACATGC,1.1
7,GCTCACCGGA,1.03
8,GCTCACCTTT,1.02
9,GCTCAGTGTT,1
10,GCTCCAGCTC,1.6
11,GCTCCATGCG,0.965
12,GCTCCATTGG,1.01
13,GCTCCGGTTA,1.07
14,GCTCCTTCAA,1.8
15,GCTCCTTTAT,0.999
16,GCTCGGATTT,1.02
17,GCTCGGGAAT,2.01
18,GCTCGTCGCG,1.03
19,GCTCTACATC,1.04
20,GCTCTACTAA,1.06
21,GCTCTAGGCT,0.988
22,GCTCTGCATC,2.08
23,GCTCTGGGAA,1.16
24,GCTCTGTGTG,1.02
25,GCTGAAAGC,1.01
